Assay results reported in PubChem BioAssay (NCATS).
Inconclusive results, whose numbers are uncertain, are shown with a selection of clear calls. Potencies of inconclusive entries are left out as doubtful fits. The source made the active and inactive calls. Calls come from the whole dose curve; as a rule, active = well fitted inhibition curve with a large enough effect; inconclusive = small, poorly fitted or top-dose-only effect; inactive = no such curve, though single readings can be large or run the other way.

Each compound was assayed against Cytochrome P450 3A7 (Homo sapiens) (UniProt P24462) (assay: Cytochrome P450 family 3 subfamily A member 7 (CYP3A7) small molecule antagonists: luciferase biochemical qHTS assay (AID 1963596; note: nearly all actives have a fitted effect of over 40% in size)). Conditions: P450-Glo CYP3A7 enzyme luminescence, 1 h; series mostly up to 57.4 µM; activity change, negative = inhibition: at the top concentration.
UniProt P24462, sequence (P24462 whole entry, looked up): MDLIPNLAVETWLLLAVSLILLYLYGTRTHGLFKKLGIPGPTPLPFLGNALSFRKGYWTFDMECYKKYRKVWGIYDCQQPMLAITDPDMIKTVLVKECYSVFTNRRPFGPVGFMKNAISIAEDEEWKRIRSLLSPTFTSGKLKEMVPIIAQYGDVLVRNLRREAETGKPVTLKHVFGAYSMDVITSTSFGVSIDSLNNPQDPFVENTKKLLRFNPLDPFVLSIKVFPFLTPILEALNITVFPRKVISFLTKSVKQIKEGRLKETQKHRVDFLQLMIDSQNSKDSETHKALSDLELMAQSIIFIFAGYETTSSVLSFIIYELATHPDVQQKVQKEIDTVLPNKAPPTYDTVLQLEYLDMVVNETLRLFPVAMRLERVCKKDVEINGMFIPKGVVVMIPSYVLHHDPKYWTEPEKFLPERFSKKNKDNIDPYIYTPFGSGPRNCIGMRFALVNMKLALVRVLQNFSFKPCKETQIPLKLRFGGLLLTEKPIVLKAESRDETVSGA
Procedure, shortened: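 Enzyme-substrate mix + cpd (DMSO), 10 min RT; + NADPH regen system, 1 h RT; + luciferin detection reagent, 20 min RT; luminescence read. Proluciferin substrate, P450-Glo format, 1536-well qHTS.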
% is set by controls: 0 for no effect and ±100 for the full control effect; potency is the fitted concentration of half-maximal effect; tags give direction and shape of the fitted curve.

Row | SMILES | activity change, negative = inhibition | Potency
1 | NC(=O)c1ncn(C2OC(CO)C(O)C2O)n1 (stereo not drawn) | inactive: -29.9% | 
2 | CC(CNS(=O)(=O)C(C)C)c1ccc(-c2ccc(C#N)cc2)cc1 (stereo not drawn) | inactive: 0% | 
3 | Cn1c(=O)c2c(nc(CN3CCN(C(=O)C4CC4)CC3)n2Cc2ccccc2Cl)n(C)c1=O |  | inconclusive [inhibitor, single point]
